# According to the supplement of paper PMC8728848:
# The other results are listed elsewhere or left out.
# B1: SBD-G4S3-Fc (protein)
# chain: MASIPSSASVQLDSYNYDGSTFSGKIYVKNIAYSKKVTVVYADGSDNWNNNGNIIAASFSGPISGSNYEYWTFSASVKGIKEFYIKYEVSGKTYYDNNNSANYQVSTGGGGSGGGGSGGGGSEFVPRDCGCKPCICTVPEVSSVFIFPPKPKDVLTITLTPKVTCVVVDISKDDPEVQFSWFVDDVEVHTAQTQPREEQFNSTFRSVSELPIMHQDWLNGKEFKCRVNSAAFPAPIEKTISKTKGRPKAPQVYTIPPPKEQMAKDKVSLTCMITDFFPEDITVEWQWNGQPAENYKNTQPIMDTDGSYFVYSKLNVQKSNWEAGNTFTCSVLHEGLHNHHTEKSLSHSPGAA
# Key:
# Test in all cases: glycan array binding signal (z-score within array); higher = stronger binding
# Conditions in all cases: glycan notation: IUPAC condensed, linker removed
# [1] = molecular target: GalNAc3S(b1-4)[Fuc(a1-3)]GlcNAc
# Summary of the method: (§1)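 Negative Z-scores can be read as non-binding. The Z-score is calculated within each array and then averaged across arrays of one protein sequence at different concentrations or buffers and across linkers. Arrays, 3228 in all, were curated from the Consortium for Functional Glycomics database and kept only where the protein sequence was available.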
# GalNAc4S6S(b1-4)GlcNAc = molecular target: GalNAc4S6S(b1-4)GlcNAc
# Summary of the method: as §1
# GalNAc6S(b1-4)GlcNAc = molecular target: GalNAc6S(b1-4)GlcNAc
# Summary of the method: as §1
# Glc(a1-4)Glc = molecular target: Glc(a1-4)Glc
# Summary of the method: as §1
# [2] = molecular target: Glc(a1-4)Glc(a1-4)Glc(a1-4)Glc
# Summary of the method: as §1
# Glc(a1-6)Glc(a1-6)Glc = molecular target: Glc(a1-6)Glc(a1-6)Glc
# Summary of the method: as §1
# [3] = molecular target: Glc(a1-6)Glc(a1-6)Glc(a1-6)Glc
# Summary of the method: as §1
# Glc(b1-4)Glc = molecular target: Glc(b1-4)Glc
# Summary of the method: as §1
# Glc(b1-6)Glc = molecular target: Glc(b1-6)Glc
# Summary of the method: as §1
# GlcA(b1-3)Gal = molecular target: GlcA(b1-3)Gal
# Summary of the method: as §1
# GlcA(b1-3)GlcNAc = molecular target: GlcA(b1-3)GlcNAc
# Summary of the method: as §1
# GlcA(b1-6)Gal = molecular target: GlcA(b1-6)Gal
# Summary of the method: as §1
# [4] = molecular target: GlcA3S(b1-3)Gal(b1-4)GlcNAc(b1-2)Man
# Summary of the method: as §1
# [5] = molecular target: GlcA3S(b1-3)Gal(b1-4)GlcNAc(b1-3)Gal(b1-4)Glc
# Summary of the method: as §1
# [6] = molecular target: GlcNAc(a1-3)Gal(b1-4)GlcNAc
# Summary of the method: as §1
# [7] = molecular target: GlcNAc(a1-4)Gal(b1-3)GlcNAc
# Summary of the method: as §1
# [8] = molecular target: GlcNAc(a1-4)Gal(b1-4)GalNAc
# Summary of the method: as §1
# [9] = molecular target: GlcNAc(a1-4)Gal(b1-4)GlcNAc
# Summary of the method: as §1
# [10] = molecular target: GlcNAc(a1-4)Gal(b1-4)GlcNAc(b1-3)Gal(b1-4)Glc
# Summary of the method: as §1
# [11] = molecular target: GlcNAc(a1-4)Gal(b1-4)GlcNAc(b1-3)Gal(b1-4)GlcNAc
# Summary of the method: as §1
# [12] = molecular target: GlcNAc(a1-4)Gal(b1-4)GlcNAc(b1-3)Gal(b1-4)GlcNAc(b1-3)Gal(b1-4)GlcNAc
# Summary of the method: as §1
# [13] = molecular target: GlcNAc(a1-4)Gal(b1-4)GlcNAc(b1-3)Gal(b1-4)[Fuc(a1-3)]GlcNAc(b1-3)Gal(b1-4)[Fuc(a1-3)]GlcNAc
# Summary of the method: as §1
# [14] = molecular target: GlcNAc(a1-6)Gal(b1-4)GlcNAc
# Summary of the method: as §1
# [15] = molecular target: GlcNAc(b1-2)Gal(b1-3)GalNAc
# Summary of the method: as §1
# [16] = molecular target: GlcNAc(b1-2)Man(a1-3)[GlcNAc(b1-2)Man(a1-6)]Man(b1-4)GlcNAc(b1-4)GlcNAc
# Summary of the method: as §1
# [17] = molecular target: GlcNAc(b1-2)Man(a1-3)[GlcNAc(b1-2)Man(a1-6)]Man(b1-4)GlcNAc(b1-4)[Fuc(a1-6)]GlcNAc
# Summary of the method: as §1
# [18] = molecular target: GlcNAc(b1-2)Man(a1-3)[GlcNAc(b1-4)][GlcNAc(b1-2)Man(a1-6)]Man(b1-4)GlcNAc(b1-4)GlcNAc
# Summary of the method: as §1
# [19] = molecular target: GlcNAc(b1-2)Man(a1-3)[GlcNAc(b1-4)][GlcNAc(b1-2)Man(a1-6)]Man(b1-4)GlcNAc(b1-4)[Fuc(a1-6)]GlcNAc
# Summary of the method: as §1
# [20] = molecular target: GlcNAc(b1-2)[GlcNAc(b1-4)]Man(a1-3)[GlcNAc(b1-2)Man(a1-6)]Man(b1-4)GlcNAc(b1-4)GlcNAc
# Summary of the method: as §1
# [21] = molecular target: GlcNAc(b1-2)[GlcNAc(b1-4)]Man(a1-3)[GlcNAc(b1-4)][GlcNAc(b1-2)Man(a1-6)]Man(b1-4)GlcNAc(b1-4)GlcNAc
# Summary of the method: as §1
# [22] = molecular target: GlcNAc(b1-2)[GlcNAc(b1-4)]Man(a1-3)[GlcNAc(b1-4)][GlcNAc(b1-2)[GlcNAc(b1-6)]Man(a1-6)]Man(b1-4)GlcNAc(b1-4)GlcNAc
# Summary of the method: as §1
# [23] = molecular target: GlcNAc(b1-2)[GlcNAc(b1-4)]Man(a1-3)[GlcNAc(b1-4)][GlcNAc(b1-2)[GlcNAc(b1-6)]Man(a1-6)]Man(b1-4)GlcNAc(b1-4)[Fuc(a1-6)]GlcNAc
# Summary of the method: as §1
# [24] = molecular target: GlcNAc(b1-2)[GlcNAc(b1-6)]Man(a1-6)[GlcNAc(b1-2)Man(a1-3)]Man(b1-4)GlcNAc(b1-4)GlcNAc
# Summary of the method: as §1
# [25] = molecular target: GlcNAc(b1-2)[GlcNAc(b1-6)]Man(a1-6)[GlcNAc(b1-2)Man(a1-3)]Man(b1-4)GlcNAc(b1-4)[Fuc(a1-6)]GlcNAc
# Summary of the method: as §1
# [26] = molecular target: GlcNAc(b1-2)[GlcNAc(b1-6)]Man(a1-6)[GlcNAc(b1-4)][GlcNAc(b1-2)Man(a1-3)]Man(b1-4)GlcNAc(b1-4)GlcNAc
# Summary of the method: as §1
# GlcNAc(b1-3)Fuc = molecular target: GlcNAc(b1-3)Fuc
# Summary of the method: as §1
# GlcNAc(b1-3)Gal = molecular target: GlcNAc(b1-3)Gal
# Summary of the method: as §1
# [27] = molecular target: GlcNAc(b1-3)Gal(b1-3)GalNAc
# Summary of the method: as §1
binder,measurement,setting,value
B1,glycan array binding signal (z-score),[1],-0.377
same,glycan array binding signal (z-score),GalNAc4S6S(b1-4)GlcNAc,-0.46
same,glycan array binding signal (z-score),GalNAc6S(b1-4)GlcNAc,-0.097
same,glycan array binding signal (z-score),Glc(a1-4)Glc,0.07
same,glycan array binding signal (z-score),[2],12.1
same,glycan array binding signal (z-score),Glc(a1-6)Glc(a1-6)Glc,-0.359
same,glycan array binding signal (z-score),[3],-0.443
same,glycan array binding signal (z-score),Glc(b1-4)Glc,-0.11
same,glycan array binding signal (z-score),Glc(b1-6)Glc,0.309
same,glycan array binding signal (z-score),GlcA(b1-3)Gal,-0.464
same,glycan array binding signal (z-score),GlcA(b1-3)GlcNAc,0.339
same,glycan array binding signal (z-score),GlcA(b1-6)Gal,-0.04
same,glycan array binding signal (z-score),[4],-0.355
same,glycan array binding signal (z-score),[5],-0.042
same,glycan array binding signal (z-score),[6],-0.372
same,glycan array binding signal (z-score),[7],0.065
same,glycan array binding signal (z-score),[8],-0.294
same,glycan array binding signal (z-score),[9],-0.159
same,glycan array binding signal (z-score),[10],-0.301
same,glycan array binding signal (z-score),[11],-0.415
same,glycan array binding signal (z-score),[12],-0.285
same,glycan array binding signal (z-score),[13],0.231
same,glycan array binding signal (z-score),[14],-0.263
same,glycan array binding signal (z-score),[15],-0.34
same,glycan array binding signal (z-score),[16],-0.096
same,glycan array binding signal (z-score),[17],0.031
same,glycan array binding signal (z-score),[18],0.004
same,glycan array binding signal (z-score),[19],-0.315
same,glycan array binding signal (z-score),[20],-0.109
same,glycan array binding signal (z-score),[21],-0.26
same,glycan array binding signal (z-score),[22],-0.045
same,glycan array binding signal (z-score),[23],-0.304
same,glycan array binding signal (z-score),[24],-0.075
same,glycan array binding signal (z-score),[25],-0.217
same,glycan array binding signal (z-score),[26],-0.17
same,glycan array binding signal (z-score),GlcNAc(b1-3)Fuc,-0.309
same,glycan array binding signal (z-score),GlcNAc(b1-3)Gal,-0.406
same,glycan array binding signal (z-score),[27],-0.128
